For 136 variants, self-cleavage results are on record in the RNAGym collection of RNA variant scans (doi:10.7554/elife.90254).

Read counts are not given, so values of variants with three or more changes are uncertain.

First the molecules themselves.
B1: LINE1-mini (parent)
chain: GGCAGAGCUCAACACAGCGUGGCAAAGUGGCUGUGGCUAGACUGCC

This data set covers variants of B1. Put plainly: self-cleavage, relative activity (ratio to wild type); higher = more cleavage; in vitro, sequencing; the parent is a self-cleaving ribozyme.
As to G33A U43G C45G, the self-cleavage is 0.08.

For G33C G36A G40A C45A, the self-cleavage came out at 0.01.

With G35C A39U U43C, the self-cleavage turned out to be 0.09.

In the case of G33C G35U G40A C42G, the self-cleavage is 0.06.

On to G29C C37U U38C, for which the self-cleavage was 0.07.

For the variant C31A U38G C45A, the self-cleavage was 0.04.

As to G29U G33A A41G, the self-cleavage turned out to be 0.08.

Take G29A C31A G35U G40U: the self-cleavage worked out at 0.04.

As for C37A U38A G40A, the self-cleavage came to 0.12.

G29A G33A G35C C37U: the self-cleavage turned out to be 0.03.

In the case of U38G A39G A41C, the self-cleavage was determined as 0.01.

Take C31U G35U U38G C45G C46A: the self-cleavage was found to be 0.03.

For G29U C31A U32A G44C, the self-cleavage was 0.03.

On to C31A G33U A41G, for which the self-cleavage was determined as 0.05.

Take G29A U34G G36A U43C: the self-cleavage was 0.02.

For the variant G29C G36A C37G, the self-cleavage was determined as 0.01.

Regarding C31A G33A U34A, the self-cleavage turned out to be 0.06.

For U32A G35C A39U, the self-cleavage was 0.02.

Consider G29A G35C A41C C42U, for which the self-cleavage was determined as 0.03.

U34A C37A U43C: the self-cleavage turned out to be 0.01.

Regarding C31A C42U C46U, the self-cleavage came out at 0.03.

Take G30U U38C G44A: the self-cleavage was 0.08.

In the case of G33U U43G G44U, the self-cleavage was 0.11.

C31G C37U C42A: the self-cleavage turned out to be 0.03.

G40A G44C C45U: the self-cleavage stood at 0.06.

Turning to G30C G36A C46U, the self-cleavage worked out at 0.06.

Turning to G30C C37U C45G, the self-cleavage was determined as 0.04.

Consider U34G U38G A39C, for which the self-cleavage amounted to 0.

Take G29U C37U G40C: the self-cleavage stood at 0.07.

In the case of C31G U32C A39C, the self-cleavage is 0.05.

As for G29U U38C C45A, the self-cleavage was 0.09.

For the variant C37A C45U C46U, the self-cleavage came out at 0.79.

On to U32A G33A U38A, for which the self-cleavage was determined as 0.02.

For the variant C31U G40U C46A, the self-cleavage was 0.11.

For U32C G33A C37U, the self-cleavage worked out at 0.06.

With C37A G40A C45U, the self-cleavage came out at 0.21.

On to G30U G40C C45A, for which the self-cleavage worked out at 0.04.

Take U32C G35A C37G: the self-cleavage came to 0.02.

C31U G35C C46G: the self-cleavage is 0.07.

Turning to G29C G36A C42A, the self-cleavage turned out to be 0.01.

Take G30A G40C C46G: the self-cleavage stood at 0.04.

Take G35A U43A C46A: the self-cleavage was found to be 0.09.

Take G30U U34C A39C: the self-cleavage was 0.01.

With G33U U34G G40C, the self-cleavage came out at 0.

For the variant C31G A41G U43A, the self-cleavage was 0.04.

With C37U U38C U43G C45A, the self-cleavage was 0.12.

Turning to G30A G33A G35A, the self-cleavage amounted to 0.32.

For the variant G33U G40A U43G, the self-cleavage worked out at 0.03.

With U34G C37U C45U C46G, the self-cleavage amounted to 0.23.

With G29A G40U C46A, the self-cleavage was determined as 0.08.

On to U32A A41U G44U, for which the self-cleavage stood at 0.01.

With G29C C31G U32C G40U, the self-cleavage worked out at 0.06.

Turning to G29C G40U C42A, the self-cleavage came out at 0.11.

Turning to C31G C37A A39C C42A U43A C46U, the self-cleavage turned out to be 0.04.

Take U32G U38A C46A: the self-cleavage came out at 0.02.

Take A41C C42G C46G: the self-cleavage is 0.02.

On to G36U U38G G44C, for which the self-cleavage turned out to be 0.

Take U32C U34G C42A: the self-cleavage was 0.02.

Turning to G29U G35C C37A, the self-cleavage was found to be 0.12.

In the case of G36U C37A U38C, the self-cleavage was 0.03.

For G30A G40A C42G C45A, the self-cleavage was 0.02.

Regarding G29U U38A C45G, the self-cleavage was determined as 0.11.

G36U A39U C45U C46A: the self-cleavage turned out to be 0.13.

U32A G33U C45A: the self-cleavage stood at 0.07.

Turning to C31A G40U G44U C45A, the self-cleavage was 0.

Take G30C C37U C42A: the self-cleavage was 0.09.

For the variant G30U U34C G35U A39G, the self-cleavage was 0.05.

In the case of G29C G36U U38G C42A, the self-cleavage was 0.

With G29U U32C G40C, the self-cleavage was 0.17.

As for G30U G33C C37A, the self-cleavage came out at 0.06.

Turning to A41G G44A C45A, the self-cleavage was found to be 0.12.

On to G33A G35C A39C G44U, for which the self-cleavage is 0.02.

Consider G29A U32C C46A, for which the self-cleavage worked out at 0.19.

On to C31G A39G C46G, for which the self-cleavage is 0.01.

With G35C C42U C46A, the self-cleavage was determined as 0.03.

Turning to U34C G36U A41U C42A, the self-cleavage is 0.07.

With U32C G35U G36U A39U, the self-cleavage came to 0.1.

Take G33U C37A C42A: the self-cleavage was found to be 0.04.

For G29A G35C G36C C37A C45G, the self-cleavage was found to be 0.02.

With G30U U38A G40U, the self-cleavage came to 0.02.

Turning to G30A G35U G36A U38A A39G, the self-cleavage was 0.03.

As for U38A G40U C45U, the self-cleavage is 0.02.

Take G29A G35C C37A: the self-cleavage came to 0.15.

In the case of G33A C37G G40U C45U, the self-cleavage was 0.01.

Consider G29C G35C U38A, for which the self-cleavage stood at 0.05.

Turning to G30C U34G G40C, the self-cleavage worked out at 0.

For C31U G33U C37A A39G, the self-cleavage came to 0.04.

As to C31U G36C C42U, the self-cleavage turned out to be 0.03.

As to U38G C42A C46U, the self-cleavage came out at 0.04.

On to G30U C37U G44U, for which the self-cleavage worked out at 0.02.

For the variant C31G C42U G44A, the self-cleavage came to 0.04.

Consider G30C U38C C42A, for which the self-cleavage worked out at 0.03.

With G30C G40U C42A, the self-cleavage came out at 0.16.

For G35U U38C G40C, the self-cleavage was found to be 0.02.

Regarding U43A C45A C46G, the self-cleavage came to 0.11.

Turning to C37A G40U C45G, the self-cleavage is 0.43.

On to G36C A41G C46A, for which the self-cleavage was determined as 0.04.

As for U34A C37A G44A, the self-cleavage was found to be 0.02.

As for G30C A39G C45A C46U, the self-cleavage is 0.1.

Regarding U34G C37U G40C, the self-cleavage worked out at 0.03.

Turning to G35U C42U U43G, the self-cleavage amounted to 0.27.

Regarding G29U G35U A39C, the self-cleavage turned out to be 0.01.

On to C31G G36U C42U, for which the self-cleavage came out at 0.05.

As to C31U G40U C45A, the self-cleavage stood at 0.02.

Take G30U U32G G44C: the self-cleavage is 0.06.

Consider G29A G33U A41U C46A, for which the self-cleavage came to 0.05.

With U32C G35U U38A A41C, the self-cleavage was 0.07.

With G35U A39U C45G, the self-cleavage came to 0.02.

As for G30A G35U G40A, the self-cleavage amounted to 0.03.

For G35A C37G C46U, the self-cleavage was 0.03.

On to G30U U34A G35U, for which the self-cleavage came out at 0.02.

With C37A A39G A41U, the self-cleavage was found to be 0.03.

In the case of G30U G35C C42G, the self-cleavage turned out to be 0.02.

Turning to G29U G35U C45U C46A, the self-cleavage is 0.02.

Turning to C31A U38A A41C, the self-cleavage was 0.03.

G29C C31A A41G: the self-cleavage was 0.15.

For A41G G44U C45U, the self-cleavage came out at 0.04.

Take G30U G35A U38A: the self-cleavage came to 0.02.

Consider G33C A39U C42A, for which the self-cleavage turned out to be 0.06.

Turning to G35U G40U C45G, the self-cleavage was 0.05.

In the case of G30A C31G U38C C45G, the self-cleavage amounted to 0.02.

Turning to G40U C42G C45A, the self-cleavage amounted to 0.26.

As for C31A U32C C46U, the self-cleavage was 0.03.

On to G33C C45G C46U, for which the self-cleavage is 0.06.

Regarding G29A U32A C37A, the self-cleavage worked out at 0.1.

In the case of G33A C42A C46A, the self-cleavage turned out to be 0.04.

On to G29A U32A G36U C46U, for which the self-cleavage came to 0.13.

G30U G36U C45A: the self-cleavage is 0.03.

G40A C42G U43G: the self-cleavage was found to be 0.1.

Turning to G29U C37A G44C, the self-cleavage was determined as 0.03.

In the case of G36U U38A A39G, the self-cleavage amounted to 0.01.

G30C A39U A41G: the self-cleavage was found to be 0.04.

With G30C C31G G35A, the self-cleavage was 0.03.

In the case of U32C G36A G40A, the self-cleavage came to 0.02.

G29U G30A A41C: the self-cleavage worked out at 0.01.

For G29U G30A A41U, the self-cleavage came out at 0.76.
